Test results: a collection of fitness landscapes (doi:10.1126/science.1257360)
This is one part of the list.

B1: PhoQ; a variant is named by its letters at X, in order, P23837 (parent)
chain: MKKLLRLFFPLSLRVRFLLATAAVVLVLSLAYGMVALIGYSVSFDKTTFRLLRGESNLFYTLAKWENNKLHVELPENIDKQSPTMTLIYDENGQLLWAQRDVPWLMKMIQPDWLKSNGFHEIEADVNDTSLLLSGDHSIQQQLQEVREDDDDAEMTHSVAVNVYPATSRMPKLTIVVVDTIPVELKSSYMVWSWFIYVLSANLLLVIPLLWVAAWWSLRPIEALAKEVRELEEHNRELLNPATTRELTSLVRNLNRLLKSERERYDKYRTTLTDLTHSLKTPLXXLQXXLRSLRSEKMSVSDAEPVMLEQISRISQQIGYYLHRASMRGGTLLSRELHPVAPLLDNLTSALNKVYQRKGVNISLDISPEISFVGEQNDFVEVMGNVLDNACKYCLEFVEISARQTDEHLYIVVEDDGPGIPLSKREVIFDRGQRVDTLRPGQGVGLAVAREITEQYEGKIVAGESMLGGARMEVIFGRQHSAPKDE

Variants of: B1
Test: enrichment ratio after two sorts for PhoP signalling (ratio (wild type AVST 3.29)); higher = more functional
Details: with PhoP (E. coli)

Variant | enrichment ratio
NCVS | ≤ 0.25
DWMW | ≤ 0.25
HMIG | ≤ 0.25
LGQS | ≤ 0.25
GYTN | ≤ 0.25
HNSV | ≤ 0.25
AQQP | ≤ 0.25
EMFE | ≤ 0.25
WTYM | ≤ 0.25
KCMP | ≤ 0.25
LTFG | 0.536
KHHG | ≤ 0.25
HASY | ≤ 0.25
FKEN | ≤ 0.25
HYSH | ≤ 0.25
DPAW | ≤ 0.25
LWRE | ≤ 0.25
MIWT | ≤ 0.25
IDQY | ≤ 0.25
VCDC | ≤ 0.25
RSRI | ≤ 0.25
KKTQ | ≤ 0.25
NIDV | ≤ 0.25
RDVQ | 1.68
TAET | ≤ 0.25

Variant | enrichment ratio
GSPW | ≤ 0.25
QSRG | ≤ 0.25
ATGV | 5.3
IRMD | ≤ 0.25
KQKL | ≤ 0.25
VFDD | ≤ 0.25
TSWN | 3.19
KYIE | ≤ 0.25
IYRS | ≤ 0.25
EVNG | ≤ 0.25
QIMS | ≤ 0.25
FRIE | ≤ 0.25
AKWN | ≤ 0.25
KLGL | ≤ 0.25
FFKE | ≤ 0.25
YDYN | ≤ 0.25
FHYV | ≤ 0.25
IVYI | ≤ 0.25
NECK | ≤ 0.25
HQMT | ≤ 0.25
DSGS | ≤ 0.25
WFTS | ≤ 0.25
FHKV | ≤ 0.25
DMNE | ≤ 0.25
AIPT | ≤ 0.25

Variant | enrichment ratio
WHIR | ≤ 0.25
YAYI | ≤ 0.25
SDCA | 0.286
YKKH | ≤ 0.25
MVPY | ≤ 0.25
LCRL | ≤ 0.25
IEFQ | 1.29
TAHP | ≤ 0.25
FPKA | ≤ 0.25
EAAL | ≤ 0.25
RHII | ≤ 0.25
VSSG | ≤ 0.25
GGPW | ≤ 0.25
PYIL | ≤ 0.25
DAPR | ≤ 0.25
QYNT | ≤ 0.25
PIVA | ≤ 0.25
NLCF | ≤ 0.25
ETYG | ≤ 0.25
PIMK | ≤ 0.25
ALNY | ≤ 0.25
GTWM | ≤ 0.25
QHSE | ≤ 0.25
NTKT | ≤ 0.25
DLHQ | ≤ 0.25

Variant | enrichment ratio
WAPY | ≤ 0.25
YPWP | ≤ 0.25
EIDR | ≤ 0.25
PCTL | ≤ 0.25
FHMV | ≤ 0.25
KNGC | ≤ 0.25
TLGC | 7.74
EYHS | ≤ 0.25
KLYS | ≤ 0.25
YWIQ | ≤ 0.25
VKQM | ≤ 0.25
ECAN | ≤ 0.25
ANMG | ≤ 0.25
FQAT | 1.07
QKLY | ≤ 0.25
SGNA | ≤ 0.25
DQTV | ≤ 0.25
KYTQ | ≤ 0.25
ELHQ | ≤ 0.25
FQHW | ≤ 0.25
HGYI | ≤ 0.25
FHCA | ≤ 0.25
IRIV | ≤ 0.25
YVHK | ≤ 0.25
FYKC | ≤ 0.25

Variant | enrichment ratio
RQVR | ≤ 0.25
ESNA | ≤ 0.25
IYAE | ≤ 0.25
QPVL | ≤ 0.25
IAWE | ≤ 0.25
KKKF | ≤ 0.25
EYIG | ≤ 0.25
TFWY | ≤ 0.25
PCPH | ≤ 0.25
SYND | ≤ 0.25
ACAP | 10.2
FQLP | ≤ 0.25
NGMV | 14
DAML | ≤ 0.25
INFV | ≤ 0.25
HWDR | ≤ 0.25
SHQQ | ≤ 0.25
TFFV | ≤ 0.25
ESSL | ≤ 0.25
DLKK | ≤ 0.25
ELYG | ≤ 0.25
AFYQ | ≤ 0.25
FTIV | ≤ 0.25
TNAT | 11
ININ | ≤ 0.25

Variant | enrichment ratio
WPWT | ≤ 0.25
WNDY | ≤ 0.25
ADCR | ≤ 0.25
YNLW | ≤ 0.25
LTDA | ≤ 0.25
HFPH | ≤ 0.25
RVSY | ≤ 0.25
SWFC | ≤ 0.25
QRVG | ≤ 0.25
NRNM | ≤ 0.25
NHSF | ≤ 0.25
VSPL | ≤ 0.25
WNFQ | ≤ 0.25
ECQN | ≤ 0.25
VVYH | ≤ 0.25
FGIY | ≤ 0.25
HQTE | ≤ 0.25
IGKS | ≤ 0.25
EFEH | ≤ 0.25
VWLW | ≤ 0.25
MFFI | ≤ 0.25
MPAF | ≤ 0.25
WPVE | ≤ 0.25
SAFA | ≤ 0.25
EYKP | ≤ 0.25

Variant | enrichment ratio
PMYP | ≤ 0.25
INPH | ≤ 0.25
TTPH | ≤ 0.25
PNII | ≤ 0.25
SPAK | ≤ 0.25
MTVP | ≤ 0.25
PLFH | ≤ 0.25
TYHG | ≤ 0.25
QYFA | ≤ 0.25
GAHS | ≤ 0.25
TFTV | 7.62
NYEL | ≤ 0.25
MAKS | ≤ 0.25
TSRR | ≤ 0.25
RTDW | ≤ 0.25
PHIP | ≤ 0.25
TLEI | 3.75
RDSW | ≤ 0.25
IFSE | ≤ 0.25
ETRD | ≤ 0.25
EPPT | ≤ 0.25
KPVD | ≤ 0.25
PIYP | ≤ 0.25
GGTH | ≤ 0.25
MACQ | 5.74

Variant | enrichment ratio
NARG | ≤ 0.25
VYHE | ≤ 0.25
VSGW | ≤ 0.25
LFMA | ≤ 0.25
TMYH | ≤ 0.25
VSIQ | ≤ 0.25
EFSN | ≤ 0.25
VQYQ | ≤ 0.25
PAQA | ≤ 0.25
FMFT | ≤ 0.25
HFVW | ≤ 0.25
PGCK | ≤ 0.25
ICMM | 7.08
FMVT | ≤ 0.25
EQIA | ≤ 0.25
FTFM | ≤ 0.25
GICN | 13.8
IGYP | ≤ 0.25
HNWK | ≤ 0.25
DEVL | ≤ 0.25
